From the supplement of paper PMC7826260
This is one part of the list. Viral Rep nickase domains cut single-stranded DNA in vitro (1 h at 37 °C, 3 µM enzyme); the outer parts of the 90-letter strands are left off. Uncut reads are compared with the no-enzyme pool on a log2 scale; more negative means more cut, near 0 not cut, and no call is made. Shares of all reads are compared, so uncut sequences can rise above 0 when many others are cut.

Experiments:
Assay in all cases: uncleaved DNA left, log2 of reads against the no-enzyme library (log2 ratio); higher = less cleavage (more negative = more Rep cleavage of the k-mer); sequences stand for … in CTCGTCCG…ACCGGAGA
[1] = tested on: T1, Rep nickase domain of Muscovy duck circovirus
T1 sequence (residues 1-111 of Rep, tag left off): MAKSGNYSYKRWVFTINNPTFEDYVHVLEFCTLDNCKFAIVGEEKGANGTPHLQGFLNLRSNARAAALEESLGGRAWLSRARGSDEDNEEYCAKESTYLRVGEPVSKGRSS
Protocol: (§1)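 A pool of 90-nt single-stranded DNAs with seven random bases just before the constant AC of the nick site (name = the seven bases) was cut by 3 µM recombinant His6-SUMO-tagged Rep nickase domain (300 nM DNA, 50 mM HEPES pH 8.0, 50 mM NaCl, 1 mM MnCl2, 1 h, 37 °C, three replicates). Uncut DNA was amplified and sequenced.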

[2] = tested on: T2, Rep nickase domain of banana bunchy top virus
T2 sequence (residues 1-94 of Rep, tag left off): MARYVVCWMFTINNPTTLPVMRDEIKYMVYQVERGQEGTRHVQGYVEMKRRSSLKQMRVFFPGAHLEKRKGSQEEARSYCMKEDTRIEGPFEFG
Protocol: as §1

[3] = tested on: T3, Rep nickase domain of cabbage leaf curl virus
T3 sequence (residues 1-116 of Rep, tag left off): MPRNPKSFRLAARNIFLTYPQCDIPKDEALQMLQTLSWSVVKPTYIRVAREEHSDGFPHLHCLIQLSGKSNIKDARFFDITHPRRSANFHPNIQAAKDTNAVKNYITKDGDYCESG
Protocol: as §1

[4] = tested on: T4, Rep nickase domain of chickpea chlorotic dwarf virus
T4 sequence (residues 1-124 of Rep, tag left off): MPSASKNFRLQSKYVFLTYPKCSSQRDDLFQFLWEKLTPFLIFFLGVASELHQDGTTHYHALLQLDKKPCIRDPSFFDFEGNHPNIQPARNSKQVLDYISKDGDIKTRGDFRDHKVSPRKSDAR
Protocol: as §1

[5] = tested on: T5, Rep nickase domain of faba bean necrotic yellows virus
T5 sequence (residues 1-98 of Rep, tag left off): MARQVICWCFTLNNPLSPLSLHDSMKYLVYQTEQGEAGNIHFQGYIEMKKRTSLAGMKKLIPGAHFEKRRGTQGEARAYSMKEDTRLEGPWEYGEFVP
Protocol: as §1

[6] = tested on: T6, Rep nickase domain of maize striate mosaic virus
T6 sequence (residues 1-117 of Rep, tag left off): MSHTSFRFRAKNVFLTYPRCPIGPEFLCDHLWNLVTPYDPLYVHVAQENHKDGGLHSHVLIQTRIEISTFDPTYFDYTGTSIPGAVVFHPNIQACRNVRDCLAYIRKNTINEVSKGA
Protocol: as §1

[7] = tested on: T7, Rep nickase domain of porcine circovirus 2
T7 sequence (residues 2-116 of Rep, tag left off): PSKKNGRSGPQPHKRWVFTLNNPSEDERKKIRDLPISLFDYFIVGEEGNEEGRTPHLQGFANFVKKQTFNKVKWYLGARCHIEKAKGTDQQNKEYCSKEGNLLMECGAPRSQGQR
Protocol: as §1

[8] = tested on: T8, Rep nickase domain of tomato golden mosaic virus
T8 sequence (residues 1-124 of Rep, tag left off): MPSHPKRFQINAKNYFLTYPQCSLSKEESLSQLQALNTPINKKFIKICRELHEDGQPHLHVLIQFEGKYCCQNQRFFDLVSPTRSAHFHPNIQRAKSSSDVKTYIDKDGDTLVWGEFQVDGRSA
Protocol: as §1

[9] = tested on: T9, Rep nickase domain of tomato yellow leaf curl virus
T9 sequence (residues 1-136 of Rep, tag left off): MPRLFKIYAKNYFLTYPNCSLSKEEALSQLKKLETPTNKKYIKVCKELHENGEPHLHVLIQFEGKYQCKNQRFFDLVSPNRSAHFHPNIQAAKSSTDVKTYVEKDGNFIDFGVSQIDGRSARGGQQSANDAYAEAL
Protocol: as §1

[10] = tested on: T10, Rep nickase domain of wheat dwarf virus
T10 sequence (residues 1-137 of Rep, tag left off): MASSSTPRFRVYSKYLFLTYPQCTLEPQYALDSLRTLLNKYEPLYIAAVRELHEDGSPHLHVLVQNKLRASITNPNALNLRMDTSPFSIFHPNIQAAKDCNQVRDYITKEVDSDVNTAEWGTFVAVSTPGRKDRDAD
Protocol: as §1

Row | Sequence | uncleaved DNA left (log2) [1] | uncleaved DNA left (log2) [2] | uncleaved DNA left (log2) [3] | uncleaved DNA left (log2) [4] | uncleaved DNA left (log2) [5] | uncleaved DNA left (log2) [6] | uncleaved DNA left (log2) [7] | uncleaved DNA left (log2) [8] | uncleaved DNA left (log2) [9] | uncleaved DNA left (log2) [10]
1 | TCTGAGA | 0.117 | 0.024 | 0.419 | 0.513 | 0.112 | -0.17 | 0.084 | 0.0373 | -0.0527 | 0.0772
2 | CCTTACA | -0.000521 | 0.137 | -0.114 | -2.46 | 0.139 | -0.525 | -0.036 | 0.166 | 0.163 | 0.0771
3 | ACAGCCA | 0.0272 | -0.0563 | -0.333 | -1.25 | -0.105 | -0.756 | 0.055 | 0.109 | -0.111 | 0.0306
4 | TGCTTTA | -0.0873 | -0.0415 | -0.0421 | -0.816 | -0.213 | -0.295 | -0.383 | -0.0768 | -0.0517 | -0.24
5 | TTCAATC | 0.0751 | 0.228 | 0.647 | 1.68 | 0.0879 | 2 | 0.0594 | 0.224 | 0.212 | 0.313
6 | AAGACGC | -0.0669 | -0.0669 | -0.0184 | -0.089 | -0.00247 | -0.507 | -0.0278 | -0.000624 | -0.0933 | -0.0541
7 | TGGCTGT | 0.088 | -0.0283 | 0.0949 | 0.811 | 0.0268 | 1.4 | -0.0602 | -0.029 | -0.0161 | 0.0519
8 | TGTACCA | 0.0746 | 0.158 | 0.272 | -0.298 | 0.158 | 0.664 | -0.299 | 0.0511 | 0.13 | 0.131
9 | CTCCTTT | -0.17 | -0.014 | -0.229 | -2.15 | -0.121 | -0.612 | -0.578 | -0.29 | -0.11 | 0.00167
10 | CGCAGAA | 0.127 | 0.22 | 0.112 | 0.17 | 0.244 | -0.262 | 0.133 | 0.107 | 0.0619 | 0.115
11 | TCGAAGA | 0.0683 | -0.134 | 0.0942 | 0.216 | -0.0196 | -0.531 | 0.177 | 0.0689 | -0.0241 | -0.0465
12 | GCTAAGA | 0.0254 | 0.0129 | 0.0646 | 0.337 | 0.0538 | -0.518 | 0.148 | 0.0447 | 0.0969 | 0.0839
13 | TCGGTGC | 0.0693 | -0.0411 | -0.312 | -0.67 | -0.0506 | -0.963 | 0.0526 | -0.189 | -0.0279 | -0.13
14 | CTGATCG | 0.0283 | -0.158 | -0.294 | -0.208 | -0.161 | -0.649 | -0.0785 | -0.141 | -0.149 | -0.0947
15 | GGGTACC | 0.166 | 0.202 | 0.792 | 1.8 | 0.117 | 2.18 | 0.26 | 0.000506 | 0.0431 | 0.206
16 | TGGCTAG | 0.0209 | 0.0205 | -0.384 | -0.535 | 0.137 | -0.693 | 0.235 | 0.0484 | 0.0813 | -0.0307
17 | ACGGCCC | -0.0778 | 0.0439 | -0.0615 | 0.138 | -0.0702 | -0.0606 | -0.0294 | 0.0591 | 0.00511 | -0.227
18 | GTGGTGG | -0.0474 | -0.0894 | 0.272 | 0.677 | -0.118 | 0.502 | -0.000372 | -0.0281 | 0.00457 | -0.119
19 | GAACCCG | -0.173 | -0.0887 | -0.814 | -1.05 | -0.0543 | -0.917 | -0.981 | -0.128 | -0.0213 | -0.205
20 | ACTGGGA | -0.022 | 0.0025 | -0.0204 | 0.261 | -0.0336 | -0.245 | 0.00301 | 0.0186 | 0.016 | -0.0495
21 | GAGCTGC | 0.0499 | -0.00916 | 0.235 | 1.16 | 0.0235 | 1.1 | 0.137 | -0.016 | -0.00641 | 0.05
22 | GCTTTAG | 0.0592 | 0.0644 | -0.236 | 0.00694 | 0.0531 | -0.971 | 0.192 | 0.167 | -0.00875 | -0.0541
23 | CTGCGAT | 0.0764 | -0.106 | -0.301 | -0.194 | 0.0612 | -0.656 | 0.0675 | -0.0331 | -0.14 | -0.157
24 | GCAATGC | -0.0406 | -0.0656 | -0.646 | -0.526 | -0.0437 | -1.12 | 0.00919 | -0.169 | -0.0371 | -0.184
25 | TCGTACA | -0.177 | -0.0483 | -0.13 | -1.79 | 0.0627 | -0.348 | -0.584 | -0.139 | -0.0802 | -0.135
26 | CGTGTAC | 0.0485 | 0.0356 | 0.157 | 0.143 | 0.068 | 0.538 | 0.0278 | 0.051 | -0.0331 | -0.0398
27 | ACTGACC | -0.157 | -0.0108 | -0.0768 | 0.593 | -0.0089 | 0.88 | 0.0928 | 0.013 | -0.133 | -0.0819
28 | CGCTATG | -0.00731 | -0.061 | -0.336 | 0.0456 | -0.0459 | -0.117 | -0.0104 | -0.0989 | -0.126 | -0.0971
29 | CCTGTGG | -0.0509 | 0.022 | 0.295 | 0.844 | -0.0479 | 0.442 | 0.0953 | 0.114 | -0.0376 | -0.0146
30 | TGCCCCA | -0.0429 | -0.12 | 0.209 | 0.0111 | -0.122 | 0.245 | -0.236 | -0.0336 | 0.039 | 0.0533
